# Reference: the supplement of paper PMC4604168 (melanoma cell lines)
# This is one part of the list. Many values rest on one well or one pass, so single values are uncertain.
# Tests used:
# Assay in all cases: cell count relative to DMSO control; melanoma cells; higher = more viable cells
# Settings in all cases: library dose: low library concentration; 72 h
# MZ2-MEL = tested on: MZ2-MEL
# MeWo = tested on: MeWo
# RPMI7951 = tested on: RPMI7951
# RVH-421 = tested on: RVH-421
# SkMel28 = tested on: SkMel28
# SkMel2 = tested on: SkMel2
# SkMel30 = tested on: SkMel30
# UACC62 = tested on: UACC62
# SkMel5 = tested on: SkMel5
# UACC257 = tested on: UACC257
# 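Also: cell number obtained by counting DAPI-stained nuclei in high-throughput microscope images with image analysis software, screen run in 1,536-well plates.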
SMILES,cell count (MZ2-MEL) [%],cell count (MeWo) [%],cell count (RPMI7951) [%],cell count (RVH-421) [%],cell count (SkMel28) [%],cell count (SkMel2) [%],cell count (SkMel30) [%],cell count (UACC62) [%],cell count (SkMel5) [%],cell count (UACC257) [%]
"C[C@]1(O)C[C@@H](c2nc(-c3ccc4ccc(-c5ccccc5)nc4c3)c3c(N)nccn32)C1 + Nc1ncn([C@H]2C[C@H](O)[C@@H](CO)O2)c(=O)n1 [decitabine] (first compound 0.4 µM, partner dose 0.1 µM)",87.6,89.1,89,98.6,82.2,85.2,93.8,68.5,,
"CCN(CC)CCNC(=O)c1c(C)[nH]c(/C=C2\C(=O)Nc3ccc(F)cc32)c1C [sunitinib] + CCCCCCCCc1ccc(CCC(N)(CO)CO)cc1 [fingolimod] (first compound 0.4 µM, partner dose 2 µM)",98.8,67.9,88.7,108,77.8,105,71.4,92,,
"COc1cc([C@@H]2c3cc4c(cc3[C@@H](O[C@@H]3O[C@@H]5CO[C@@H](C)O[C@H]5[C@H](O)[C@H]3O)[C@H]3COC(=O)[C@H]23)OCO4)cc(OC)c1O [etoposide] + COc1cc2c(Oc3ccc4[nH]c(C)cc4c3F)ncnc2cc1OCCCN1CCCC1 [cediranib] (first compound 0.02 µM, partner dose 0.4 µM)",88.8,91.8,115,101,94.8,98.3,105,76.1,99.3,93.6
"Cn1cnc2c(F)c(Nc3ccc(Br)cc3Cl)c(C(=O)NOCCO)cc21 [selumetinib] + O=C(Nc1cccc(Cl)c1)Nc1ncc(CCNc2ncnc3ccsc23)s1 [SNS314] (first compound 0.015 µM, partner dose 0.0008 µM)",102,89.2,117,84.5,104,77.2,65,95.3,109,87.9
"CCN(CC)CCNC(=O)c1c(C)[nH]c(/C=C2\C(=O)Nc3ccc(F)cc32)c1C [sunitinib] + Oc1nc(-c2ccc(C(F)(F)F)cc2)nc2c1CSCC2 [XAV939] (first compound 0.4 µM, partner dose 2 µM)",102,85.9,106,124,77.1,105,75.5,82.9,72.4,80
"C[C@]1(O)C[C@@H](c2nc(-c3ccc4ccc(-c5ccccc5)nc4c3)c3c(N)nccn32)C1 + CC(C)(C)c1cnc(CSc2cnc(NC(=O)C3CCNCC3)s2)o1 [SNS-032] (first compound 0.4 µM, partner dose 0.01 µM)",88.8,95.2,92,98.2,102,77.6,91.5,77.5,90.5,92.5
"Cn1cnc2c(F)c(Nc3ccc(Br)cc3Cl)c(C(=O)NOCCO)cc21 [selumetinib] + Cn1cc(/C=C2\C(=O)Nc3cccnc32)c2ccccc21 [GW441756] (first compound 0.015 µM, partner dose 0.4 µM)",99.3,92.2,141,96.5,73.8,91.6,74.1,63.6,84.5,66.8
"Cn1cnc2c(F)c(Nc3ccc(Br)cc3Cl)c(C(=O)NOCCO)cc21 [selumetinib] + CO[C@@H]1[C@H](N(C)C(=O)c2ccccc2)C[C@H]2O[C@]1(C)n1c3ccccc3c3c4c(c5c6ccccc6n2c5c31)C(=O)NC4 [Midostaurin] (first compound 0.015 µM, partner dose 0.08 µM)",87.2,75.5,106,79.8,91.8,75.3,79.1,73.5,118,98.3
"CCN(CC)CCNC(=O)c1c(C)[nH]c(/C=C2\C(=O)Nc3ccc(F)cc32)c1C [sunitinib] + CC(C)CCN1c2nc(Nc3cc(F)c(O)c(F)c3)ncc2N(C)C(=O)C1C [BID1870] (first compound 0.4 µM, partner dose 0.2 µM)",106,77.2,94.7,105,91.3,96.3,67.7,85.8,102,73.1
"C[C@]1(O)C[C@@H](c2nc(-c3ccc4ccc(-c5ccccc5)nc4c3)c3c(N)nccn32)C1 + C=C(c1ccc(C(=O)O)cc1)c1cc2c(cc1C)C(C)(C)CCC2(C)C [Bexarotene] (first compound 0.4 µM, partner dose 2 µM)",94.9,89.9,69.6,95.5,68.6,71.6,99,98.1,,
"COc1cc([C@@H]2c3cc4c(cc3[C@@H](O[C@@H]3O[C@@H]5CO[C@@H](C)O[C@H]5[C@H](O)[C@H]3O)[C@H]3COC(=O)[C@H]23)OCO4)cc(OC)c1O [etoposide] + Cc1cc(N2CCOCC2)cc2[nH]c(-c3c(NC[C@@H](O)c4cccc(Cl)c4)cc[nH]c3=O)nc12 [BMS536924] (first compound 0.02 µM, partner dose 0.2 µM)",83.3,81.1,91.1,76.8,76.4,82.6,81,79.3,93.8,85.2
"Cn1cnc2c(F)c(Nc3ccc(Br)cc3Cl)c(C(=O)NOCCO)cc21 [selumetinib] + CC(C)(C)c1cnc(CSc2cnc(NC(=O)C3CCNCC3)s2)o1 [SNS-032] (first compound 0.015 µM, partner dose 0.01 µM)",80.3,87,91.6,91.2,95.3,73.6,87.4,73.9,124,99.1
"Cn1cnc2c(F)c(Nc3ccc(Br)cc3Cl)c(C(=O)NOCCO)cc21 [selumetinib] + CN1CCN(c2ccc3nc(-c4c(N)c5c(F)cccc5[nH]c4=O)[nH]c3c2)CC1 [Dovitinib] (first compound 0.015 µM, partner dose 0.1 µM)",70.4,79.7,107,85.7,104,67.1,42.6,71.8,,
"C[C@]1(O)C[C@@H](c2nc(-c3ccc4ccc(-c5ccccc5)nc4c3)c3c(N)nccn32)C1 + O=C(O)C(=O)Nc1sc2c(c1C(=O)O)CCNC2 [TCS401] (first compound 0.4 µM, partner dose 1.66667 µM)",96,88,99.9,117,82.5,101,89.1,83.5,69.2,95.4
"C[C@]1(O)C[C@@H](c2nc(-c3ccc4ccc(-c5ccccc5)nc4c3)c3c(N)nccn32)C1 + NC1(c2ccc(-c3nc4ccn5c(=O)[nH]nc5c4cc3-c3ccccc3)cc2)CCC1 [MK2206] (first compound 0.4 µM, partner dose 0.4 µM)",93.8,94.7,94.9,96.2,78.5,83,93.5,84.2,,
"CCN(CC)CCNC(=O)c1c(C)[nH]c(/C=C2\C(=O)Nc3ccc(F)cc32)c1C [sunitinib] + COc1cc(N2CCC(N3CCN(C)CC3)CC2)ccc1Nc1ncc(Cl)c(Nc2ccccc2S(=O)(=O)C(C)C)n1 [NVP-TAE684] (first compound 0.4 µM, partner dose 0.08 µM)",111,81,88.8,129,95.2,103,65.8,87.3,87.1,72.8
"C[C@]1(O)C[C@@H](c2nc(-c3ccc4ccc(-c5ccccc5)nc4c3)c3c(N)nccn32)C1 + Cn1cncc1[C@@](N)(c1ccc(Cl)cc1)c1ccc2c(c1)c(-c1cccc(Cl)c1)cc(=O)n2C [tipifarnib] (first compound 0.4 µM, partner dose 0.01 µM)",88,86,80.3,76.7,92.8,60,82.8,68.2,81.7,79.2
"C[C@]1(O)C[C@@H](c2nc(-c3ccc4ccc(-c5ccccc5)nc4c3)c3c(N)nccn32)C1 + O=C(Nc1cccc(Cl)c1)Nc1ncc(CCNc2ncnc3ccsc23)s1 [SNS314] (first compound 0.4 µM, partner dose 0.0008 µM)",98.6,96.8,103,114,86,81.7,101,75.7,76,80.6
"C[C@]1(O)C[C@@H](c2nc(-c3ccc4ccc(-c5ccccc5)nc4c3)c3c(N)nccn32)C1 + O=S(=O)(c1ccccc1)N(CC(F)(F)F)c1ccc(C(O)(C(F)(F)F)C(F)(F)F)cc1 [T0901317] (first compound 0.4 µM, partner dose 1.4 µM)",111,111,88.9,107,71.3,86.3,81.3,89,86.9,92.8
"COc1cc([C@@H]2c3cc4c(cc3[C@@H](O[C@@H]3O[C@@H]5CO[C@@H](C)O[C@H]5[C@H](O)[C@H]3O)[C@H]3COC(=O)[C@H]23)OCO4)cc(OC)c1O [etoposide] + NC(=O)c1ccc(N(C(N)=O)c2c(F)cccc2F)nc1-c1ccc(F)cc1F [VX702] (first compound 0.02 µM, partner dose 0.4 µM)",94.3,94.6,107,80.3,101,94.8,99.6,84,,
"Cn1cnc2c(F)c(Nc3ccc(Br)cc3Cl)c(C(=O)NOCCO)cc21 [selumetinib] + NC(=O)Nc1cc(-c2cccc(F)c2)sc1C(=O)N[C@H]1CCCNC1 [AZD7762] (first compound 0.015 µM, partner dose 0.02 µM)",91,91.8,123,95,99.4,77.3,79.6,75.3,118,147
